This note sets out measurements from PMC8805618.

Protein sequences, listed by entry. Tags and fused reporters are not part of them. Lines headed by an entry give the natural chain unless they say otherwise; changes in a name come on top. Residues count along the entry.
UniProt Q69ZK9, residues 15-836: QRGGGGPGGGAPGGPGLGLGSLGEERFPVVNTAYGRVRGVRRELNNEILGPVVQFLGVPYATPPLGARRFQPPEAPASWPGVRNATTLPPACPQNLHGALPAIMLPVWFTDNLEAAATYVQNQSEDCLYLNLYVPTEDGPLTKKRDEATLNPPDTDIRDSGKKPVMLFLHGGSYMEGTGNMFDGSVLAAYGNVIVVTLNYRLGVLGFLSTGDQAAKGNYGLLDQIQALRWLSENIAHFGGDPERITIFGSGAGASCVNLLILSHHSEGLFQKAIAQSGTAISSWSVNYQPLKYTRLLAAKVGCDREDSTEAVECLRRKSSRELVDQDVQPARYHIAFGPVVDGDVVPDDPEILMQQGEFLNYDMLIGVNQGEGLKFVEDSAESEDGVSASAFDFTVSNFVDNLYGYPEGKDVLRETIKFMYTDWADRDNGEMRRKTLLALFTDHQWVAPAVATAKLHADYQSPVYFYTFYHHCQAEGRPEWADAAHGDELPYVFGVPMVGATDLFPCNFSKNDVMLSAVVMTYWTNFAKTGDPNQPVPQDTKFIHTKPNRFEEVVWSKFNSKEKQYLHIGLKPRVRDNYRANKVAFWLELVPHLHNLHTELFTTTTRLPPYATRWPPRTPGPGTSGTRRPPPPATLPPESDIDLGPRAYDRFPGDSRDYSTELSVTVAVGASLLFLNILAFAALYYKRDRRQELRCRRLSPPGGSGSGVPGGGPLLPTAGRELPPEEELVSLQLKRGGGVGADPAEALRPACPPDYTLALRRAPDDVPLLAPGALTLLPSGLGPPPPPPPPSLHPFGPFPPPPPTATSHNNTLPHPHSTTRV
UniProt B0F2B4, residues 19-945: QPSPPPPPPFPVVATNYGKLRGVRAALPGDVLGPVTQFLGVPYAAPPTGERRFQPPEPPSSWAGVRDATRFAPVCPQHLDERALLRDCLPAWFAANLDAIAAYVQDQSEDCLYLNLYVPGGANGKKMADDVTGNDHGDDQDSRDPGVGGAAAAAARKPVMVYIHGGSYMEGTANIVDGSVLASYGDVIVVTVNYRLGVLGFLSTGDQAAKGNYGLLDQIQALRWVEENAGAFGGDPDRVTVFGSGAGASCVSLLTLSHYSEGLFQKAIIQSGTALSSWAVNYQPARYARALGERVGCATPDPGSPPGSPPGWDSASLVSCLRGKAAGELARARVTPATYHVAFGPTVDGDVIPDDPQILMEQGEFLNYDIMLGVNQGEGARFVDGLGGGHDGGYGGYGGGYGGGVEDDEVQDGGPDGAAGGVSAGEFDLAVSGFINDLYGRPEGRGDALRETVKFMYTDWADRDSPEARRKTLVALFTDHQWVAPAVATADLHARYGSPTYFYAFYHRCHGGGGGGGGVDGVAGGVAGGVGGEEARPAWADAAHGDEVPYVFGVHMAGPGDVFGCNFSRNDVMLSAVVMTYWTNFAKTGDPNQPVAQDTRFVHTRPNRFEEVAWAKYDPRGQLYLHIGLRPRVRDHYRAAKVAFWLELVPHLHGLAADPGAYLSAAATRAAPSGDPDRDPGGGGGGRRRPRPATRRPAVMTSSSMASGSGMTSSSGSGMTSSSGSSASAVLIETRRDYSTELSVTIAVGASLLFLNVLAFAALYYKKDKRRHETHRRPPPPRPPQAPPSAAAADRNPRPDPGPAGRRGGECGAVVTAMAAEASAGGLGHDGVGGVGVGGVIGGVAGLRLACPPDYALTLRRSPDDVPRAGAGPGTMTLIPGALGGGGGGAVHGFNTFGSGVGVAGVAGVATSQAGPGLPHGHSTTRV
UniProt Q8BYM5, residues 35-825: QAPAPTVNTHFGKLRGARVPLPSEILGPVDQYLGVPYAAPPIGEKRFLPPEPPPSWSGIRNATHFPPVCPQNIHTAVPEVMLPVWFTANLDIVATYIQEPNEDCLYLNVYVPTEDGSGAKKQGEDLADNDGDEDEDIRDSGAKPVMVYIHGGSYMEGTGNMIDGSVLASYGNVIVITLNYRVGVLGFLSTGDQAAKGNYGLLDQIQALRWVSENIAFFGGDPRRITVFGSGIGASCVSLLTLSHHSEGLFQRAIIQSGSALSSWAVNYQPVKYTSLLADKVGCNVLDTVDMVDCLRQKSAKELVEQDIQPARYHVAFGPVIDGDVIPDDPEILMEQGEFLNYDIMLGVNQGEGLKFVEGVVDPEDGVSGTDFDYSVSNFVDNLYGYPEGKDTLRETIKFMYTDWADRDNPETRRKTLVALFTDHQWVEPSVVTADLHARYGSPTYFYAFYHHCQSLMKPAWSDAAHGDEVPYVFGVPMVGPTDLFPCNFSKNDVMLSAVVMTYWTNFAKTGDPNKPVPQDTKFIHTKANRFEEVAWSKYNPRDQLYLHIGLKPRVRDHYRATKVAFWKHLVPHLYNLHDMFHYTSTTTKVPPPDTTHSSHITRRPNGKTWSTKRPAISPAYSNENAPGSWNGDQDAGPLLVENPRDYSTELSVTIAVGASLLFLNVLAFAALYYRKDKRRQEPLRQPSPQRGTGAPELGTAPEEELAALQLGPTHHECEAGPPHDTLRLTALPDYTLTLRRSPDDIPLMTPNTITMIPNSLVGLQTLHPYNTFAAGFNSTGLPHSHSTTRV
UniProt Q99K10, residues 46-843: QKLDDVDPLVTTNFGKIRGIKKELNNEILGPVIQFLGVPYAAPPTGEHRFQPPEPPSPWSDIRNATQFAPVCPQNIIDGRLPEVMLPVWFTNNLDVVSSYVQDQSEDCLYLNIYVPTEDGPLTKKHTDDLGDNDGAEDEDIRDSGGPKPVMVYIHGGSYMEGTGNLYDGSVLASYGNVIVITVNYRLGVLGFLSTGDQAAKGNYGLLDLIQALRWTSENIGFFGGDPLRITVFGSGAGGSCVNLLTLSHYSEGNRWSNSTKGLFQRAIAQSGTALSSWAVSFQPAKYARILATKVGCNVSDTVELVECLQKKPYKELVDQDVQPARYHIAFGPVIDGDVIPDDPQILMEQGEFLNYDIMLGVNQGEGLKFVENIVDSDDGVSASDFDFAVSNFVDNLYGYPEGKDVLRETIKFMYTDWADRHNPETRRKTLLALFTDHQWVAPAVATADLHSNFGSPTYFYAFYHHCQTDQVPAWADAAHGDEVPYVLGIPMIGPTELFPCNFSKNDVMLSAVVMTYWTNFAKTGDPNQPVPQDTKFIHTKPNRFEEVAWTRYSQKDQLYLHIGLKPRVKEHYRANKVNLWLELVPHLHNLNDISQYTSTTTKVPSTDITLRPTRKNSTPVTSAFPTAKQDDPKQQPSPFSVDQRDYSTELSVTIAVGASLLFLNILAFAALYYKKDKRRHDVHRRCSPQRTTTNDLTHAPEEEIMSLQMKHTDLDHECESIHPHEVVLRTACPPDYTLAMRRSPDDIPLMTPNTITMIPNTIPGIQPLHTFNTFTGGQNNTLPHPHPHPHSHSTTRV
UniProt Q9ERC8: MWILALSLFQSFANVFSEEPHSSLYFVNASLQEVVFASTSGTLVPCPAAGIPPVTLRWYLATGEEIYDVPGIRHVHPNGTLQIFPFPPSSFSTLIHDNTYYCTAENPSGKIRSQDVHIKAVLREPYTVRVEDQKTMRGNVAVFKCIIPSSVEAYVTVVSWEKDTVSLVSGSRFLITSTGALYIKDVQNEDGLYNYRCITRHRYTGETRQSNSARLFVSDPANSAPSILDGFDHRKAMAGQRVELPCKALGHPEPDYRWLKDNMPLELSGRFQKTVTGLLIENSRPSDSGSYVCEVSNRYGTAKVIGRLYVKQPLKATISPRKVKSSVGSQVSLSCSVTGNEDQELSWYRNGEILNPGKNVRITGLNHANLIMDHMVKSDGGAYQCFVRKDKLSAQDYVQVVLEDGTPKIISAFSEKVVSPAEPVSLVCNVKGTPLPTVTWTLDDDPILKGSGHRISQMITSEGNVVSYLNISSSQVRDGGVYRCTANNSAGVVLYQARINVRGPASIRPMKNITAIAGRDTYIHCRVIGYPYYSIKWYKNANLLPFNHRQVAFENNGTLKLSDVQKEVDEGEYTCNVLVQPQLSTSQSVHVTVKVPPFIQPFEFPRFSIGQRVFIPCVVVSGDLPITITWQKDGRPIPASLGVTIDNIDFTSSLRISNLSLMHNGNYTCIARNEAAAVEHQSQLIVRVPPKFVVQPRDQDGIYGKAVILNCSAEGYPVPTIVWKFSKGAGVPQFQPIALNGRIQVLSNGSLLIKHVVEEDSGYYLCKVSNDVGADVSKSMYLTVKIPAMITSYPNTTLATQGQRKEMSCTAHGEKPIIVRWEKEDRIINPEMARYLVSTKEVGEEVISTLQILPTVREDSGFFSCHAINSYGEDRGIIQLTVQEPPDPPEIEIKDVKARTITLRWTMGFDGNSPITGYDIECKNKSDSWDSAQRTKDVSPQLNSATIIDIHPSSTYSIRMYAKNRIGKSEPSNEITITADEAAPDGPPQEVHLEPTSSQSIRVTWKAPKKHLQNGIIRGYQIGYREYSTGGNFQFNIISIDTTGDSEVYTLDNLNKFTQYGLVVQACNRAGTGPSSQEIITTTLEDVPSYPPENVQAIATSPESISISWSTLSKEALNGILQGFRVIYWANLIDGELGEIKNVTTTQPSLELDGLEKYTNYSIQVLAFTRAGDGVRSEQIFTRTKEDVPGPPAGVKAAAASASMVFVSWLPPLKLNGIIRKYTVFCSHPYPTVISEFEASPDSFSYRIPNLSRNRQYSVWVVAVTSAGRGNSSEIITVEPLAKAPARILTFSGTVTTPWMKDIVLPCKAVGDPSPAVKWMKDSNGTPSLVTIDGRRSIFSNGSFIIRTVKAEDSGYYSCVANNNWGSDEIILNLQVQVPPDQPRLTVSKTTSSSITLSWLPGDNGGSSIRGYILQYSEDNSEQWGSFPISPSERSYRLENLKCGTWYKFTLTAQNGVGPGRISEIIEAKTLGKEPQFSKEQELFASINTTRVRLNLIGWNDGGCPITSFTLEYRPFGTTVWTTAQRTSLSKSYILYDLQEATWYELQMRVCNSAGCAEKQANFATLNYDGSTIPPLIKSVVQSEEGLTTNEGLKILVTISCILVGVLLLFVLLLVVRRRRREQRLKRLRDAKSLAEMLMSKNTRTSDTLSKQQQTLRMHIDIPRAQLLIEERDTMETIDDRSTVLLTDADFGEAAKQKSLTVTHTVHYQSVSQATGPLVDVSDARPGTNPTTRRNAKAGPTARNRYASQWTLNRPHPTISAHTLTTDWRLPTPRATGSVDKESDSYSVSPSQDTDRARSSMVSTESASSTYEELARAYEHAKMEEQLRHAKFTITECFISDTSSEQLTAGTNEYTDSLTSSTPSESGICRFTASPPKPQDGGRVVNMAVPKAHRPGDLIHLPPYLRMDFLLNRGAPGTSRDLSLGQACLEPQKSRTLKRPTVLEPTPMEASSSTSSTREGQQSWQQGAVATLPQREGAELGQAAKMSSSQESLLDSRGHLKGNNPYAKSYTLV
UniProt P0DI97, residues 47-468: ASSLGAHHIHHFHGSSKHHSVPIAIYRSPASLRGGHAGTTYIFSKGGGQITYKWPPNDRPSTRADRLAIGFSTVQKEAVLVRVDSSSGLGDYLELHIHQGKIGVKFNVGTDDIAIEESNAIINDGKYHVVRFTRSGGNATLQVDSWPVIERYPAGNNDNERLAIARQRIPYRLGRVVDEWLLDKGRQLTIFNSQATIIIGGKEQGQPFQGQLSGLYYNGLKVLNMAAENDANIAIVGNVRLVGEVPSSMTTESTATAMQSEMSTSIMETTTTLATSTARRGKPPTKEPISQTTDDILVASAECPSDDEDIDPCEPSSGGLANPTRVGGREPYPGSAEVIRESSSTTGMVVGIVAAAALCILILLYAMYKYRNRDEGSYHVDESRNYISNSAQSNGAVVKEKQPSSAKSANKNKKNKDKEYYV

Assay [1] has as its target NLGN2, construct of the co-immunoprecipitations of Figure 7A-C (mouse) (UniProt Q69ZK9). The assay is described as follows: co-IP; HEK293T cells cotransfected with DSCAM-His or FLAG-ECD and NLGNs; lysate immunoprecipitated with anti-GFP; buffer 20 mM Tris pH 7.6, 50 mM NaCl, 1 mM EDTA, 0.5% NP-40.
In assay [2] the target is NLGN4, construct of the co-immunoprecipitations of Figure 7A-C (mouse) (UniProt B0F2B4). The description is as above.
The target of assay [3] is NLGN3, construct of the co-immunoprecipitations of Figure 7A-C (mouse) (UniProt Q8BYM5). Described as above.
Assay [4] addresses neuroligin1 (NLGN1), construct of the co-immunoprecipitations of Figure 7A-C (mouse) (UniProt Q99K10). Described as above.
For assay [5], the target named is NLGN1, construct immunoprecipitated with anti-FLAG antibody in Figure 8A (mouse) (UniProt Q99K10). In words: co-IP; HEK293T cells cotransfected with NLGN1, NRXN1β and different amounts of DSCAM-His; lysates immunoprecipitated with anti-FLAG, blotted with anti-GFP, anti-FLAG and anti-His.
The target of assay [6] is full-length mouse DSCAM with a C-terminal His-tag (mouse) (UniProt Q9ERC8). In words: co-IP; HEK293T cells cotransfected with DSCAM-His and NLGNs or NRXNs; lysate immunoprecipitated with anti-His, blotted with anti-GFP and anti-His; buffer 20 mM Tris pH 7.6, 50 mM NaCl, 1 mM EDTA, 0.5% NP-40.
The target of assay [7] is endogenous DSCAM of mouse brain (mouse (endogenous in brain)) (UniProt Q9ERC8). The assay is described as follows: co-IP; WT mouse brain lysates immunoprecipitated with anti-DSCAM, blotted with anti-DSCAM and anti-NLGN1.

No constants are given. Whether binding was seen depends on the method and setting. In cells and extracts the contact can be indirect. Some binding calls cover weakened binding; strength is not graded here.

With “full-length mouse DSCAM with a C-terminal His-tag (from UniProt Q9ERC8 18-2013)”, the binding result in assay [1], in assay [2], in assay [3], in assay [4] and in assay [5] was “binds” throughout.
Consider NRXN2α (from UniProt E9Q7X7 29-1710), for which the binding result in assay [6] is recorded as “no binding”.
As for “endogenous NLGN1 of mouse brain (from UniProt Q99K10 46-843)”, the binding result in assay [7] is on record as “binds”.
As for “neuroligin1 (NLGN1), construct of the co-immunoprecipitations of Figure 7A-C (from UniProt Q99K10 46-843)”, the binding entry in assay [6] is given as “binds”.
The same measure, in the same setting: next, “NLGN4, construct of the co-immunoprecipitations of Figure 7A-C (from UniProt B0F2B4 19-945)”: “binds”; NRXN1α (from UniProt Q9CS84 31-1514): “no binding”.
As for “FLAG-tagged secretable extracellular domain of DSCAM (from UniProt Q9ERC8 24-1594) (domain or fragment)”, the binding entry in assay [1], in assay [2], in assay [3] and in assay [4] was “binds” in each case.
For “NLGN3, construct of the co-immunoprecipitations of Figure 7A-C (from UniProt Q8BYM5 35-825)”, the binding result in assay [6] is given as “binds”.
In the case of NRXN3α (from UniProt Q6P9K9 28-1571), the binding result in assay [6] is reported as “no binding”.
For “neurexin1β (NRXN1β), full length (from UniProt P0DI97 47-468)”, the binding entry is reported as “binds” in assay [5] and “no binding” in assay [6].
For “NLGN2, construct of the co-immunoprecipitations of Figure 7A-C (from UniProt Q69ZK9 15-836)”, in assay [6], the binding entry was “binds”.
